These results are taken from publication doi:10.1101/2021.07.03.451002, “Multivalent, asymmetric IL-2-Fc fusions provide optimally enhanced regulatory T cell selectivity” (bioRxiv, 2021).

This experiment concerns the target T1, IL2Rα ectodomain (UniProt P01589 22-240).
T1 construct: IL2Rα (interleukin-2 receptor subunit alpha, CD25) ectodomain; source: purified (Nickel-NTA spin columns)
T1 sequence (looked up): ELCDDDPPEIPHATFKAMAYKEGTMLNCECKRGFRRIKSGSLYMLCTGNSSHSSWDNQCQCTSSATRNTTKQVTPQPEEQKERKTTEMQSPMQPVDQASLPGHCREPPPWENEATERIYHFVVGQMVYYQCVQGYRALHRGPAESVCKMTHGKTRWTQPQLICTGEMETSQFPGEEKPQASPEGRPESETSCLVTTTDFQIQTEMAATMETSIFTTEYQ
Briefly: BLI; Octet RED384; monomeric biotinylated IL-2/Fc fusions loaded on Streptavidin biosensors at roughly 10% of saturation; IL2Rα from 25 nM to 20 pM; PBS + 0.1% BSA; KD from equilibrium binding. To be noted: both partners purified.

B1: R38Q/H16N IL-2, monomeric biotinylated IL-2/Fc fusion protein (Fc fusion)
chain: not shown
modifications: biotin (BirA enzyme; AviTag)
notes: interleukin-2, human, with R38Q and H16N; IL-2 is joined to the Fc by a (G4S)4 linker; source: Expi293, purified (MabSelect resin), biotinylated with BirA
With B1, the binding result is listed as “binds”.
